The source of these data is PubChem BioAssay AID623894 (Johns Hopkins Ion Channel Center, 2012).

Certain results were filed several times, with different values. This list holds those alone. An entry can have further records. Values given together are repeated measurements (runs, samples, wells, individuals or studies). What stands in brackets tells the records apart. Letters count within one entry.

As usually defined, the IC50 is the concentration needed to halve the response being measured. Lower therefore signals higher potency.

The experiment concerns the target Potassium channel subfamily K member 3 (Rattus norvegicus) (UniProt O54912). Kind of experiment: KCNK3 potassium channel inhibitors, SAR follow-up, selectivity assay for KCNK9 inhibitor project, cell-based, FluxOR thallium flux, CRC set 3 (AID 623894). To be noted: KCNK3-expressing cell line, FluxOR thallium flux fluorescence. Put shortly:
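Test system: tetracycline-induced KCNK3 CHO cells; Incubation: dye loading 90 min, compound exposure 20 min, room temperature, dark; Signal: kinetic thallium-flux fluorescence with FluxOR dye, 110 s post-stimulus.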

Sequence of UniProt O54912 (O54912 whole entry, looked up): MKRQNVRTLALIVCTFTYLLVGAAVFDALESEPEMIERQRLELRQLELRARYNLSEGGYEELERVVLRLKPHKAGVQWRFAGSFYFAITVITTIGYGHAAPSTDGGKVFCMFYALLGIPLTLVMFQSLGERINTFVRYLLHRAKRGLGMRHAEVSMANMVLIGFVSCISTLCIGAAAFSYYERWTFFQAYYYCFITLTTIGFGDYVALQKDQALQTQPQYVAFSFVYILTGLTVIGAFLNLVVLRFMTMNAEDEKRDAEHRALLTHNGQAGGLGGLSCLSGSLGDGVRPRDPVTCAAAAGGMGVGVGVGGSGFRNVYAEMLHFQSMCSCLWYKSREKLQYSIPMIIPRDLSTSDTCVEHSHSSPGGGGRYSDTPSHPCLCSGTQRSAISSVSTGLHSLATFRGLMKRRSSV

Turning to `C[C@H]([C@@H]1CC2CC[C@H]1C2)n1c(-c2ccsc2)n[nH]c1=S`, the IC50 is 470 nM [sample A] and 5.09 µM [sample B].
Next, `C[C@@H]([C@@H]1CC2CC[C@H]1C2)n1c(-c2ccsc2)n[nH]c1=S`: 1.61 µM [sample A] and 20.4 µM [sample B].
